# Several values for one entry are separate records, joined by “and”; a condition that tells them apart may be missing. Identical values can stand only once. Screen size: about 390,000 compounds; about 610 (0.16%) were called active. About 4% were inconclusive and are not listed. Calls come from the whole dose curve; as a rule, active = well fitted inhibition curve with a large enough effect; inconclusive = small, poorly fitted or top-dose-only effect, or effect the other way, or another doubt; inactive = no such curve, though single readings can be large or run the other way. This is a selection; strong and weak results do not stand in their true shares.
# Assay: Nrf2 qHTS screen for inhibitors: counterscreen for cytotoxicity
# Conditions: A549 ARE-Fluc cells, CellTiter-Fluor viability, 18-24 h; series mostly up to 46 µM; activity change, negative = cytotoxicity: at the top concentration
# Summary of the method: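 Cytotoxicity counterscreen: CellTiter-Fluor fluorescence was measured in A549 ARE_Fluc cells after 18-24 h of compound exposure in a concentration series. The subsequent BugLite luminescent read reports ARE-luciferase activity.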
# % is set by controls: 0 for no effect and ±100 for the full control effect; potency is the fitted concentration of half-maximal effect.
SMILES,"activity change, negative = cytotoxicity",Potency
C#Cc1ccc([C@@H]2C=C(C(=O)NCc3nc4ccccc4[nH]3)O[C@H](OCC)[C@H]2CCCO)cc1,inactive: 0.505%,–
N[C@@H](Cc1cc(I)c(Oc2ccc(O)c(I)c2)c(I)c1)C(=O)O,inactive: -13.5%,–
CCN1/C(=C\c2ccc3ccccc3[n+]2CC)Sc2cc(C)ccc21,–,active: 23.1 µM
CCC1CN(C(=O)NCc2ccc(C)cc2)c2cc(C)ccc2O1 (configuration not stated),inactive: 2.18%,–
C=CC[C@@H](CC(=O)N[C@H](CO)Cc1ccccc1)C(=O)N[C@H](C)COC(=O)[C@@H](CC=C)Cc1ccc(F)cc1,inactive: -4.8%,–
COCCOC(=O)c1c(C)oc2ccc(O)c(CN3CCC(C)CC3)c12 (tested in a mixture with another compound),inactive: -13.2%,–
CC(C)C[C@H](NC(=O)c1[nH]cnc1C(=O)N[C@H](C)c1ccccc1)C(=O)OCc1ccccc1,inactive: -7.25%,–
COc1ccc(-n2nc3c(N4CCC(C(=O)NCc5ccccc5C)CC4)nnc(C)c3c2C)cc1,inactive: -0.0672%,–
O=C(C[C@H]1C/C=C\CC[C@@H](Cc2ccc(F)cc2)C(=O)O[C@@H](c2ccccc2)CNC1=O)N[C@H](CO)Cc1ccccc1,inactive: -4.69%,–
COc1ccc(OC)c2nc3c(C(=O)NCCN(C)C)cccc3nc12,–,active: 16.4 µM
Cc1oc2c(c1C(=O)N1CCOCC1)C(=O)c1ccccc1C2=O,–,active: 16.4 µM
N=c1c2c(ncn1-c1ccccc1)Oc1ccc3ccccc3c1C2c1ccc2c(c1)OCO2 (configuration not stated),–,active: 14.6 µM
CN1CCN(CCC=C2c3ccccc3Sc3ccc(S(=O)(=O)N(C)C)cc32)CC1,inactive: -14.6%,–
O=C(C1=C[C@@H](c2ccc(C(F)(F)F)cc2)C[C@@H](OCc2ccc(CO)cc2)O1)N1CCN(Cc2ccc3c(c2)OCO3)CC1,inactive: -21.6%,–
CC1CCN(CC(=O)N2CCCc3c2c(=O)oc2ccc(OCc4ccccc4)cc32)CC1,inactive: -10.4%,–
Cc1ccc(CN2C(=O)c3ccccc3Sc3ccc(C(=O)NCCCN4CCOCC4)cc32)cc1,inactive: -1.28%,–
CCCCCCN1C=C/C(=C\C=C(C#N)C#N)c2ccccc21,–,active: 6.51 µM
Cc1ccc(SC[C@H](CC(C)C)N2CCN(CCc3ccccc3)CCC2=O)cc1,inactive: -16.9%,–
C=CC[C@@H](CC(=O)N[C@H](CO)Cc1ccccc1)C(=O)N[C@@H](COC(=O)[C@@H](CC=C)CC(=O)OC(C)(C)C)Cc1c[nH]c2ccccc12,inactive: -18.9%,–
N#C/C(=C\c1ccc(-c2ccccc2C(=O)O)o1)c1nc2ccccc2[nH]1,inactive: -27%,–
Cc1c(NC(=O)/C(C#N)=C/c2ccc(-c3ccc(Cl)cc3)o2)c(=O)n(-c2ccccc2)n1C,–,active: 23.1 µM

SMILES,"activity change, negative = cytotoxicity",Potency
COc1cccc2c1cc1c(=O)n(CC(=O)NCCCN3CCN(C)CC3)nc(C)n12,inactive: 7.97%,–
CC(=O)c1ccc(N2CCN(S(=O)(=O)c3ccc(-c4cnc(C5CC5)o4)cc3)CC2)cc1,inactive: -19.8%,–
C#Cc1ccc([C@H]2C=C(C(=O)N3CCN(Cc4ccc5c(c4)OCO5)CC3)O[C@@H](OCC)[C@@H]2CCCO)cc1,inactive: -1.78%,–
COc1cc(C2C3=C(COC3=O)Oc3cc4c(cc32)OCO4)cc(OC)c1OC (configuration not stated),inactive: -4.3%,–
O=C1Nc2ccc(Br)cc2/C1=N\N=C\C1=C(N2CCOCC2)C(=C/c2ccccc2)/CC1,inactive: -13.5%,–
O=C1NC[C@@H](c2ccccc2)OC(=O)[C@@H](Cc2ccc(F)cc2)C/C=C\C[C@@H]1CC(=O)N(CCO)Cc1ccccc1,inactive: -29.4%,–
C=CCC[C@H](Cc1ccc(F)cc1)C(=O)OC[C@@H](C)NC(=O)[C@H](CC=C)CC(=O)N(CCO)Cc1ccccc1,inactive: -2.86%,–
Cn1cc(C(=O)N/N=C/C(Br)=C/c2ccccc2)ccc1=O,inactive: 5.06%,–
NC(=NCCCCCCN=C(N)/N=C(\N)Nc1ccc(Cl)cc1)/N=C(\N)Nc1ccc(Cl)cc1,inactive: -2.22%,–
Nc1nc(=S)c2ncn(C3OC(CO)C(O)C3O)c2[nH]1 (configuration not stated),inactive: -1.98%,–
CN(C)c1ccc(/C=C/c2ccc3c4ccccc4ccc3[n+]2-c2ccccc2)cc1,–,active: 9.2 µM and active: 10.3 µM
Cc1c(N=C/C=C2/N(C)c3ccccc3C2(C)C)c(=O)n(-c2ccccc2)n1C,–,inactive
Cc1ccc(/C=C2\SC(=S)N(CCC(=O)NCCCN3CCOCC3)C2=O)cc1,–,active: 14.6 µM
CCOC(=O)c1c(C)[nH]c2c1-c1ccccc1C(=O)C2=O,–,active: 23.1 µM
O=C1/C(=C\c2cccs2)SC(=S)N1C1CCS(=O)(=O)C1 (configuration not stated),inactive: -12.6%,–
Cc1[nH]c2ccc(C(=O)NCCCN3CCCCC3)cc2c1C,inactive: 13.2%,–
CCOC(=O)C1=CC[C@H]2c3c(c4ccccc4n3C)C(=O)C1N2C(=O)OC(C)(C)C,inactive: -1.29%,–
CCN(CC)CCC(c1ccc2c(c1)OCO2)c1c(OC)cc(OC)c2ccc(=O)oc12 (configuration not stated),–,active: 16.4 µM
COc1ccc(Cn2c(C(=O)O)c(CNCc3cccc(OC)c3)c3ccc(C)cc32)cc1,–,active: 8.2 µM
COc1cccc2c1C(=O)c1c(O)c3c(c(O)c1C2=O)C[C@@](O)(C(=O)CO)C[C@@H]3O[C@H]1C[C@H](N)[C@H](O)[C@H](C)O1,inactive: -21.6%,–
CCN(CC)CCN1C(=O)Cn2c(C)c(C)c3cccc1c32,inactive: -1.39%,–

SMILES,"activity change, negative = cytotoxicity",Potency
Cc1ccc(N2CC(C(=O)Nc3nccs3)CC2=O)cc1Cl (configuration not stated),–,active: 16.4 µM
O=C(O)[C@@H](O)c1ccccc1,inactive: -1.52%,–
COc1ccc(NS(=O)(=O)c2cc([N+](=O)[O-])ccc2N/N=C\c2c(C)[nH]c3ccccc23)cc1,inactive: -15.9%,–
O=C1N[C@@H](Cc2ccccc2)COC(=O)[C@H](Cc2ccc(F)cc2)CC/C=C/C[C@@H]1CC(=O)N(CCO)Cc1ccccc1,inactive: -5.41%,–
CCOC(=O)c1cnc2ccc(OC)cc2c1NCCc1ccc(OC)c(OC)c1,inactive: -17.2%,–
CC1=NN(c2ccccc2)C(=O)/C1=C/C=C/C=C/N(C)C,–,active: 10.3 µM
C=CCC[C@H](Cc1ccc(F)cc1)C(=O)OC[C@@H](Cc1c[nH]c2ccccc12)NC(=O)[C@@H](CC=C)CC(=O)N[C@H](CO)Cc1ccccc1,inactive: -13.9%,–
O=C1[C@H](Cc2ccccc2)NCC=CC[C@@H](c2ccc(Cl)cc2)N1Cc1ccc(Cl)cc1,inactive: -21.4%,–
Cc1cccc(N2CCN(C(=O)c3nn(C)c4c3CS(=O)(=O)c3ccccc3-4)CC2C)c1 (configuration not stated),inactive: -4.26%,–
Cc1ccc(-n2c(-c3ccco3)nc3c(cnn3-c3ccc(C)cc3)c2=O)cc1,inactive: 5.78%,–
CCOc1ccc(-c2csc(/C(C#N)=C\c3ccc(O)c([N+](=O)[O-])c3)n2)cc1,–,active: 16.4 µM
Cc1ccc(N(C)C(=O)CCS(=O)(=O)c2cc3c(cc2Cl)NC(=O)CO3)cc1,inactive: 1.4%,–
Cc1ccc2nc(-c3ccc(N=Nc4cc(S(=O)(=O)O)c5ccccc5c4O)cc3)sc2c1S(=O)(=O)O,–,active: 13 µM
O=C(N/N=C/C(Br)=C\c1ccccc1)c1cccs1,inactive: -15.4%,–
O=C1N[C@H](Cc2c[nH]c3ccccc23)COC(=O)[C@H](Cc2ccc(F)cc2)C/C=C\C[C@H]1CC(=O)N(CCO)Cc1ccccc1,inactive: -11.2%,–
CC1=C/C(=C(\c2ccc(O)c(C)c2)c2ccccc2S(=O)(=O)O)C=CC1=O,inactive: -6.9%,–
COc1ccc(S(=O)(=O)/N=C2/NC(=O)/C(=C/c3ccco3)S2)cc1,inactive: -9.01%,–
COc1ccc(C(CC(=O)N2CCCC2)c2c(OC)cc(OC)c3ccc(=O)oc23)cc1 (configuration not stated),inactive: -12%,–
CCCOc1ccc(C(=O)N(Cc2cccs2)C2CCS(=O)(=O)C2)cc1 (configuration not stated),inactive: 7.26%,–
O=C(CCN1C(=O)/C(=C/c2ccco2)SC1=S)Nc1ccc(C(=O)O)c(O)c1,inactive: -13.3%,–
CC1(C)CC[C@]2(C(=O)n3ccnc3)CC[C@]3(C)[C@H](C(=O)C=C4[C@@]5(C)C=C(C#N)C(=O)C(C)(C)[C@@H]5CC[C@]43C)[C@@H]2C1,–,active: 6.51 µM

SMILES,"activity change, negative = cytotoxicity",Potency
CCOc1ccc(NC(=O)CCCOc2cc(=O)n(C)c3ccccc23)cc1,inactive: 0.575%,–
CCC1CC=CC2C1C(=O)N(Cc1ccccc1)C2c1ccc(C(F)(F)F)cc1 (configuration not stated),inactive: 0.552%,–
Cc1cccc(N2CCN(C(=O)C3CCN(c4ncnc5c4nc4n5CCCCC4)CC3)CC2C)c1 (configuration not stated),inactive: -14.2%,–
CC1=CC(C)(C)N2C(=O)C3(NCCc4c3[nH]c3ccccc43)c3cc(C)cc1c32 (configuration not stated),–,active: 11.6 µM
COc1cc(OC)c2ccc(=O)oc2c1C(CCN1CCCC(C)C1)c1ccc(N(C)C)cc1 (configuration not stated),inactive: -21.4%,–
COc1cc(OC)c2ccc(=O)oc2c1C(CCN1CCCC1)c1ccc(N(C)C)cc1 (configuration not stated),inactive: -15.1%,–
CCn1cc(C(=O)NCCCN2CCC(C)CC2)c(=O)c2cc(S(=O)(=O)N(C)C3CCCCC3)ccc21,inactive: -11.8%,–
Cn1cccc1/C=C1\SC(=S)N(CC(=O)O)C1=O,inactive: -23.2%,–
CCC(/C=C1\Sc2ccc(OC)cc2N1CCO)=C\c1sc2ccc(OC)cc2[n+]1CCO,–,active: 20.6 µM
Cc1ccc(NC(=S)N/N=C/c2ccc([N+](=O)[O-])s2)cc1,–,active: 23.1 µM
Cc1ccc2c(c1)c1c3n2CCNC3CCC1 (configuration not stated),inactive: 3.68%,–
Cc1cccc(NC(=O)C(=O)NNC(=O)c2ccc(C(C)(C)C)cc2)c1,–,active: 6.51 µM
Cc1nc2ccccc2n2c(-c3ccccc3)c3c(=O)n(C)c(=O)n(C)c3c12,inactive: 5.03%,–
CC[n+]1c(/C=C(\C)SC)sc2ccccc21,inactive: -18.1%,–
C[C@@]12CCC=C[C@H]1[C@H](c1ccc3ccccc3c1)N(Cc1ccccc1)C2=O,inactive: -0.65%,–
C=CC[C@@H](Cc1ccc(F)cc1)C(=O)OC[C@@H]1CCCN1C(=O)[C@@H](CC=C)CC(=O)N[C@@H](CO)Cc1ccccc1,inactive: 8.2%,–
CN(C)c1ccc(N=C/C=C2/N(C)c3ccccc3C2(C)C)cc1,inactive: -29.8%,–
O=C1N[C@@H](Cc2c[nH]c3ccccc23)COC(=O)[C@H](Cc2ccc(F)cc2)C/C=C\C[C@@H]1CC(=O)N(CCO)Cc1ccccc1,inactive: -21.9%,–
CC(C)(C)[C@H]1COC(=O)[C@H](NC(=O)OCC2c3ccccc3-c3ccccc32)C/C=C\C[C@@H](CC(=O)N[C@H](CO)Cc2ccccc2)C(=O)N1,inactive: -12.6%,–
